In all, about 310,000 compounds went through this assay and about 14,000 (4.5%) showed an effect of 50% or more. Effects have a minus sign here. The list shows a part of the results.
Biological target: human ether-à-go-go-related gene (hERG) potassium channel (human, UniProt Q12809)
Assay: primary screen, population patch clamp on CHO cells stably expressing hERG
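Note: peak tail current of the secondary pulse compared with the same well before compound.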

human ether-à-go-go-related gene (hERG) potassium channel, sequence (Q12809 whole entry, looked up): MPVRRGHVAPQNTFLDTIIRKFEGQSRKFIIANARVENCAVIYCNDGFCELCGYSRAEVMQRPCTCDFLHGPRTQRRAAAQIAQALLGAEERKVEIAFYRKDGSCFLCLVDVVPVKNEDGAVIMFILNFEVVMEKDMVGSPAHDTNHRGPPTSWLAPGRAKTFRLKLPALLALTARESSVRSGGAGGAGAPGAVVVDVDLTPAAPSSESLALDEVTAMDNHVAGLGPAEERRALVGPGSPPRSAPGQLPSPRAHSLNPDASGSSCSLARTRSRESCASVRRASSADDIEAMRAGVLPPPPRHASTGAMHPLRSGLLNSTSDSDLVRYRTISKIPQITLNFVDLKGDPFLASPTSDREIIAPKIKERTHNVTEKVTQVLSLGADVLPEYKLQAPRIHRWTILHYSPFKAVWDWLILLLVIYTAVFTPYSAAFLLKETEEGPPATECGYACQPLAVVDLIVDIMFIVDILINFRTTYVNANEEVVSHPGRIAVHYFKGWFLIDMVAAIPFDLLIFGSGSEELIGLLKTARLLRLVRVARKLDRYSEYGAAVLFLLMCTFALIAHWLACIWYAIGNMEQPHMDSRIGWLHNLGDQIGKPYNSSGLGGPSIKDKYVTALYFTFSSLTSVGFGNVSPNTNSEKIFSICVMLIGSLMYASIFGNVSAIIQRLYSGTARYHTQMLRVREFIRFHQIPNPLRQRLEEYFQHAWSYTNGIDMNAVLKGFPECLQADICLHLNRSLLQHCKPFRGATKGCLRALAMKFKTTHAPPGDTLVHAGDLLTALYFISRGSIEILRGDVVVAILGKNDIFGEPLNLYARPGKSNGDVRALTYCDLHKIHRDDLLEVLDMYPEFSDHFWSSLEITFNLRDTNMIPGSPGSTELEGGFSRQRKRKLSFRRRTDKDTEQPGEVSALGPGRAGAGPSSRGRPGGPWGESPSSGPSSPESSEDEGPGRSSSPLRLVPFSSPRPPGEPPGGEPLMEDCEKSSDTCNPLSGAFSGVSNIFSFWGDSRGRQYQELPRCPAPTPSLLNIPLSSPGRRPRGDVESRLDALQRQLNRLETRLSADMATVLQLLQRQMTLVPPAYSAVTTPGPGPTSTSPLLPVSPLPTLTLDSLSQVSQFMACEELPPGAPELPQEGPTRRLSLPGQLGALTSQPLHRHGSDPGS

Structure (SMILES) | hERG current change (%, negative = inhibition) at 10uM [%]
COc1ccc(-c2cc(C(=O)Nc3ccc(OC)c(OC)c3)no2)cc1 | 22.3
COc1ccc(N2CCN(C(=O)CN3C(=O)COc4ccccc43)CC2)cc1 | -1.51
Cc1[nH]c(C)c(S(=O)(=O)N2CCCCC2)c1C(=O)N1CCCCC1 | 4.27
O=C(OCC(=O)N1CCOCC1)c1cccc(S(=O)(=O)Nc2ccc(F)cc2)c1 | -16.3
O=C1C(Cl)=C(N2CCOCC2)C(=O)N1c1ccccc1 | 3.46
Cc1cccc(C)c1NC(=O)C(=O)NCCCN1CCOCC1 | 8.72
O=C(O)CC1(CC(=O)N2CCOCC2)CCCC1 | 9.36
O=C(c1ccccc1)N1CCN(C(=O)c2ccccc2)C1c1ccccc1 | 4.53
O=C(NCCc1ccccn1)c1n[nH]c(=O)c2ccccc12 | -13.1
CCCc1[nH]nc2c1C1(CCN(C(=O)OCc3ccccc3)CC1)C(C#N)=C(N)O2 | -0.739
C[C@]12CCC(=O)C=C1CC[C@@H]1[C@@H]2[C@@H](O)C[C@]2(C=O)[C@@H](C(=O)CO)CC[C@@H]12 | -0.464
O=C(NC(c1ccccc1)c1ccccc1)c1ccc(CO)cc1 | -15.4
O=C1NC(=S)N(c2ccccc2)C(=O)C1C(c1ccncc1)C1C(=O)NC(=S)N(c2ccccc2)C1=O (centres unmarked) | 30.1
COc1cccc(C(=O)N/N=C(/c2ccccc2)c2ccccn2)c1 | 6.88
Cc1cc(OCC(=O)N(C)Cc2ccccc2)cc(C)c1Cl | -7.8
Cc1nn(C)c(C(=O)NC2C3CC4CC(C3)CC2C4)c1Cl (centres unmarked) | 2.27
COc1cc(OC)c2cc[nH]c2c1 | 27.3
Cc1onc(-c2ccccc2Cl)c1C(=O)Nc1nnc(-c2ccc(Cl)cc2Cl)s1 | 17
COc1ccc(CN2C(=O)c3cccnc3C2Nc2ccc(C)cc2)cc1 (centres unmarked) | -18.6
CCC(C)N(C(=O)COc1ccc(NC(C)=O)cc1)C1CCS(=O)(=O)C1 (centres unmarked) | 56.7
CCNCC1(c2ccc(OC)c(OC)c2)CCCC1.Cl | -5.6
CCCCOc1ccc(NC2=NC3(CCCCC3)N=C(N)N2)cc1 | 6.7
C/C(CC(=O)NC(C)(C)C)=N\NC(N)=S | 20

Structure (SMILES) | hERG current change (%, negative = inhibition) at 10uM [%]
Cn1c(Cn2c(=O)sc3ccccc32)nnc1SCC(=O)N1CCCC1 | -9.47
COCC(=O)N(C)c1nnc(-c2ccc([N+](=O)[O-])cc2)s1 | 6.65
Cc1cccc(/C=N/NC(=O)c2ccc(NC(=O)c3ccc(Cl)cc3)cc2)n1 | 1.04
COc1ccc(CNC(=O)c2sccc2C)cc1 | 20.2
Cc1cccc(NC(=S)NCCC(C)C)c1 | 0.688
CCN(CC)C(=N)N1c2ccccc2CCC1C.Cl (centres unmarked) | -0.402
CCOCCCNC(=O)c1c[nH]c2cc(OC)ccc2c1=O | 9.13
COc1ccccc1Nc1cc(C(=O)NCc2cccnc2)c2ccccc2n1 | -12.3
COC(=O)c1ccc(/C=N/NC(=O)C(=O)N2CCCCCC2)cc1 | 6.12
O=C(NCc1ccccc1)c1cc2ccccc2o1 | -4.68
COc1ccc(OCc2cc(C(=O)N3CCCN(C(C)=O)CC3)no2)c(Cl)c1 | -14.8
CCOC(=O)C1(Cc2cccc(Cl)c2)CCCN(C(=O)c2ccoc2C)C1 (centres unmarked) | -7.06
CCOC(=O)CS(=O)(=O)c1ccc(O)cc1 | 47
O=C(NCc1ccc2c(c1)OCO2)c1c(F)c(F)c(F)c(F)c1F | 8.95
Cc1nc(C(=O)NC2CCOCC2)sc1C1(C)CC(c2ccccc2)=NO1 (centres unmarked) | -19.8
Cc1ccc(Cc2nnc(SCC(=O)Nc3ccccc3C)[nH]c2=O)cc1 | -12.9
O=C(Nc1nc(-c2cccs2)cs1)c1ccc([N+](=O)[O-])o1 | 0.579
O=C(NC1CCSc2ccccc21)c1ccc(F)cc1 (centres unmarked) | 1.96
NS(=O)(=O)c1cccc(NC(=S)NC(=O)c2cccc([N+](=O)[O-])c2)c1 | -13.2
CC(=O)N1CCCc2cc(S(=O)(=O)Nc3ccc4c(c3)OCO4)ccc21 | -11.2
CCOC(=O)CSc1cn2c(n1)CCC2 | -0.729
CCCS(=O)(=O)NCCc1cc2c(C)ccc(C)c2[nH]c1=O | -6.65
Br.Cc1ccc(Nc2nc(-c3c(C)nc4ccccn34)cs2)cc1 | -62.7

Structure (SMILES) | hERG current change (%, negative = inhibition) at 10uM [%]
C=CCN1C(=O)c2ccccc2Sc2ccc(C(=O)N3CCC4(CC3)OCCO4)cc21 | -4.43
O=C(Cc1ccc(-n2c(=O)c3sccc3n(Cc3ccc(F)cc3)c2=O)cc1)NCc1ccco1 | -11.2
O=c1c2ccccc2nc(-c2ccccc2Cl)n1O | 11.9
CCOC(=O)C1=C(Cc2ccc(Cl)cc2)C(=O)c2ccccc2C1=O | -8.05
CC1CCCCN1C(=O)CN(C)S(=O)(=O)c1cccc2nsnc12 (centres unmarked) | 12.8
CCOc1ccc(NC(=O)C/C(C)=N/NC(=O)COc2ccc(Br)cc2C)cc1 | -16.7
COC(=O)c1ccc(Cl)c(NC(=O)NC2CCCCC2)c1 | 7.26
O=C(CC(c1ccccc1)c1cc(Br)ccc1O)NCCN1CCOCC1 (centres unmarked) | -34.7
O=C(Nc1ccc(Br)cc1)c1cc([N+](=O)[O-])cc([N+](=O)[O-])c1 | 9.98
Cc1occc1C(=O)N/N=C/C=C/c1ccccc1[N+](=O)[O-] | -14.3
COCC(C)n1c(C)cc(C(=O)COC(=O)c2c(C)nn(-c3ccccc3)c2C)c1C (centres unmarked) | -35.2
CCCCN(C)Cc1c(C)[nH]c2c(ccc3ccccc32)c1=O | -73.6
O=C(O)c1cc(-c2ccc(Cl)cc2)n[nH]1 | -6.64
O=C(c1cccc(S(=O)(=O)N2CCN(c3ccccc3)CC2)c1)N1CC=C(c2ccccc2)CC1 | 14.3
CCOC(=O)N1CCC(Nc2c(Nc3ccc(C)c(C)c3)c(=O)c2=O)CC1 | -5.22
N#CC(C(=O)Nc1ccc(Cl)c(Cl)c1)=C1Nc2ccccc2N1 | -9.86
CCOc1ccccc1NS(=O)(=O)c1csc(C(N)=O)c1 | 11.7
COc1cc2c(cc1OC)-c1c3c(cc4c1[C@@H](C2)N(C)CC4)OCO3 | -31.7
Cc1cccc(NC(=O)CSCC(=O)Nc2ccc(S(=O)(=O)N3CCCC3)cc2)c1 | -2.22
CC1(C)Cc2ccccc2C(CSc2ccccc2C(=O)O)=N1 | 19.2
O=C(Nc1oc2ccc(Cl)cc2c(=O)c1-c1ccc(F)cc1)c1ccco1 | 0.0714
CCOC(=O)COc1cccc2c(=O)n(CC(=O)NCCc3ccccc3)ccc12 | 7.91
NC(=O)C(Cc1ccccc1)NS(=O)(=O)c1ccc(N2CCCC2=O)cc1 (centres unmarked) | -5.05

Structure (SMILES) | hERG current change (%, negative = inhibition) at 10uM [%]
Cc1cc(C(=O)N/N=C/c2ccc([N+](=O)[O-])cc2)c2ccccc2n1 | 17.2
COc1ccc(OC)c(-c2c(C#N)c(N)nc3c2c(=O)nc2sccn23)c1 | 4.87
Cc1ccc(S(=O)(=O)NCC2CCC(C(=O)NC3CCCCC3)CC2)cc1 (centres unmarked) | 4.25
CCCCn1c(N)c(N(CCC(C)C)C(=O)C2CCCN(C(=O)c3ccc(Cl)cc3)C2)c(=O)[nH]c1=O (centres unmarked) | 2.1
Cc1cc(N(CC(=O)NC2CC2)S(C)(=O)=O)ccc1Br | 7.52
CC1CCN(C(=O)CC2C(=O)Nc3c2c(=O)n(C)c(=O)n3Cc2ccccc2)CC1 (centres unmarked) | 7.07
NC(=O)CSc1nnc(-c2ccc3c(c2)OCO3)o1 | 6.02
COC(=O)c1ccccc1NC(=S)N1CCOCC1 | 22.2
CCC(CC)C(=O)Nc1ccc([N+](=O)[O-])cn1 | 10.8
COc1ccccc1CCC(=O)Nc1cccc(S(=O)(=O)N2CCCCCC2)c1 | -2.9
CCCCCc1nc2c(=O)n(C)c3ccccc3c2o1 | -46.7
Cc1nnc(-c2cnn(-c3ccccc3)c2N)n1Cc1ccccc1 | -1.94
COc1ccc(NC(=O)C(c2ccccc2)N(C)C(=O)CNC(C)=O)cc1 (centres unmarked) | 20.8
CCCN(CC(=O)Nc1ccc(C)cc1Br)CC(=O)Nc1ccc(F)c(F)c1F | -4.78
CCOC(=O)C1=C(c2ccccc2)NC(SCC(=O)Nc2ccc(C)cc2)=C(C#N)C1c1ccco1 (centres unmarked) | -22.9
CCOC(=O)N1CCC(N2Cc3cccc(C(=O)Nc4cccc(F)c4)c3C2=O)CC1 | -72.1
CCOC(=O)c1sc2nc(C)nc(N3CCCCC3C)c2c1C (centres unmarked) | -26.9
O=C(C[n+]1ccccc1)Nc1ccccc1C(F)(F)F.[Cl-] | 15
Cn1cc(C(=O)C(=O)N2CCc3ccccc32)c2ccccc21 | 19.7
O=C1c2ccccc2C(O)(c2ccccc2)N1C1CC1 (centres unmarked) | -45.4

From paper PMC4336329 (PLoS ONE, 2015)
